# Results published in the supplement of paper PMC12632987.
# Whole data set: some 4,500 sequences, median “median log2 fold change of GCK-ALFA target abundance (FLAG IP / Myc IP barcode read proportion)” near 0.078, cut for the lowest 2% near -0.6. Some of the results follow.
# B1: GBRAP_128_3278 (protein)
# chain: ADPAIVARARAFVEAIAAADLETARELAEEFAAWLGSVSVEQAATAVAVVKERLGELSVEKLEVLADVLREQRPLFDPEKANLVADLEVEALNEAEEKEE
# B2: GBRAP_78_6577 (protein)
# chain: EVEELVDKAIELLGKAASLLSKQKTEEANDILGEVIDAISYLVEAEENGFDLELLEKALEEAKKALELVKKQKSEEAKEVAKLLEEAIELLEKAIKLLKE
# B3: GBRAP_160_4295 (protein)
# chain: METLEELKELIEETIERTAELMVGESAEQRATIVAGELGSLIYELSERPEVSDETIDKFVEIRDELVAYILANPDLTDEELRELLEEAREKMIEVLEEDF
# B4: GBRAP_128_3560 (protein)
# chain: SVEEAVARARELLERIRASDVEAAREAARELAALLEAADPEALEAIVAEILERLPELSVEHLEVLADVFREAMPSADPRTAEALAEIEVEALNEAEEKEE
# B5: GBRAP_106_2564 (protein)
# chain: AKLEELKAFLREKLREEWAKVPAVTDAIVERFGEDREEATRAVRAHALDYVNDEVRRKMKSLGIDNPELIRRLRETLHALRDAPLEEQIAAAEAVLEEGL
# B6: GBRAP_35_5613 (protein)
# chain: EDVQLAVDSFVDMAEAIIELIPEIDDETLAALAQSLIKFAKSLLKEEKNNKEALEKIKEAMEKLLEALKKYRSDNPLIQKVAKEVQEVIKEAEKAIKEVK
# B7: GBRAP_160_4387 (protein)
# chain: GEELEKLAKEIEKLRKEFVEEAKDLNTEETRTLAKGVLAEVAALVFENEAVSEETQDKIFEIIDDALEEIDENADAPPEEIVAITTEAFDKIIKLVKEEK
# B8: GBRAP_184_5129 (protein)
# chain: TVVHETVEGTTADKLIADAKAVVDAAAARGERLNLHVIAENMSVDEIITVIKALGAIKAAHPEVTIILDVLDELSEEEIDRLVKAADEAGVRLVVAIKEE
# B9: GBRAP_78_6632 (protein)
# chain: EVEELVDKALEELGRAARLAQKLPPEAQNEVLDLIVDAASDLLEAEENGFDLKLLEEALAHAEAALKKVKELDLPEAKALAEELKKAIELLKKAIELVKK
# B10: GBRAP_184_5169 (protein)
# chain: MVLEFEIEVKDVAEAKAKIAAIAEEVKGKKAELYVIVEVERLTVEIAKAIIAGLKAIKDAGYVTSITVEFTGEIDEEALDTAIKLADEAGIKLVVAIDEE
# B11: GBRAP_160_4000 (protein)
# chain: MEEIEELKEEIEEIIDETIAAMEGLTPEERLTLVRGMVGEIIQLVEDSPAVSDEAEDEIAELGDELVEEVEANRDAPLEVWRELLERFLEEIKKILDKEE
# B12: GBRAP_172_5001 (protein)
# chain: GVTLLELDLLGLSREEAVAAATAAVKAAIAATGADLVVAVVADDQATVDAVEAAVKAVAAAAGKKVVVVGEAYRSEADRARVRAAAEAEKINLEYEQEEK
# B13: GBRAP_166_4887 (protein)
# chain: SAAERQAAADALRKETIAELKKLSDSEVLEKMDIVADYVERMKELGFSKEEIVKTTIEIMKEVKATKQQVNAAAAVVIAFADLDEEEIDLLDKLIKELFA
# B14: GBRAP_26_5501 (protein)
# chain: IEEKLKEAEEELKKAAKELLDPELAAVLNAEIDDIFAEAEDELEENKDDPEKQKKIVEEMEKELKKAVEELGVPEEAAKKLKELIKEKAKEIKEYIEKIA
# B15: GBRAP_184_5160 (protein)
# chain: KVLEKTIEASNLEEVKEKLKEVREEAKKTKGDLYVILRLKNPTKEMLKLILDELGEILKEGLAKRVVLGIENDLDEEMIDFVVERADEEGVQVVIAISDE
# B16: GBRAP_95_7016 (protein)
# chain: DDDQLAVESLAEALEAAVDLGDEEAAKKYAKEAVKLVAAHPEAKFIPDLSPEAVKVLIEAAKETLSPEETAAVLAKLAASLKDPEAKALAEAALAEVEAA
# B17: GBRAP_160_4679 (protein)
# chain: SMKVEKAKKEIDEEFAFVLSLHDEVTPEQLAAAVRVAFGELKLYLEELGLLTDEVEEEIDDEEDEIVDAILANPDITREEFAALLEEAREEIVEELEKAD
# B18: GBRAP_9_7136 (protein)
# chain: MSEVVEKIIELFKEAEEDILKVVPEEYKPLVKEVFDEAIKKLKELQKDKNLTLEKLRKTVEELIAKMKEIFDANLPPDVARMVNAILYTMEEEIEEILEE
# B19: GBRAP_153_3946 (protein)
# chain: GAEAAARLERALALLERIRAEGGDPALIRELAALIRSLTPEQRLEVARAMNALSPELVHRIFRVLATEEGFSVEELLEMTTELDLEHEAAALEAIVEAQK
# B20: GBRAP_52_6009 (protein)
# chain: MREELRERLEEALALVRAGRLEEARALVTELVESLDEEELELLIELLAEMAREAAPEDFDAVWTLAELVAEEMRRAGKDEVLADLLEARVAAALYEAEQR
# B21: GBRAP_159_3959 (protein)
# chain: MEARLAALRADLEALGASPELIAAAVEAVELAEEGEDAESIAAHLIHLYTVLGATTEEILTVLSHLPPELAREVAEILAEWAEEQGDAELAAALRAFLAA
# B22: GBRAP_52_5912 (protein)
# chain: MREELREKAEEILELVKAGKLEEARELARELVEELSEEELELFIEEFERLVLEAPKEELPYFWKAAEIIAEELEEEGKDEVLADLLLSRTAAAIYKVLQK
# B23: GBRAP_172_5007 (protein)
# chain: SYKEIRKVIDSEDAEEAKRELERVIREASKYPGAIVAIAVRVKNEEDAEEVEAYGEALAKKYPHITVEIFVSHDPSLNLEQIAQALLDNAILEREEEEEE
# B24: GBRAP_160_4070 (protein)
# chain: SEELEKLKKEIEEIFDEAIEMMKGENHENRVTIARVMRGEVVLLLEENPSISEEAVEAADKIGDELVATLEANPDLTDEEIEKLIKEARAKILKAIEEHT
# B25: GBRAP_128_3599 (protein)
# chain: AAEEAAAYAREMMEKIKNSDDAEAAEIAKELADYLLGLSLEEVEAVAKEIIKRLPELTADKLVILQDALHAAAKKASPEKAEVLLYALGEAGEEAYELEE
# B26: GBRAP_52_5957 (protein)
# chain: MEEEIERDAEELLALVRAGDEEGARALAREIARTYNDEELRLFAEVLARRAREAAPEDLDAIWRLAEILAEEIERAGKDPALAGDLLAKVAAAIYEKELE
# B27: GBRAP_184_5294 (protein)
# chain: KVKEVVIEAETAEEALKKIEEAAEEAKKEGVKLELYLYLKNVSAEGFEKIAKKLKELKEEGIIEKAIVDLLDEKSEEEVDKFVKIADEAGINLVVALSDE
# B28: GBRAP_186_5388 (protein)
# chain: EEEAEEELDRVIDEAEAQGYTVIVSYLENKSLEEQKEAIKRDAEAVAALAKETGKKYALIVYVKTKKEDIEKLKEFAKELNEKYLAETGVLVRLVVEDSE
# B29: GBRAP_52_6289 (protein)
# chain: SEEEVEKIVEEIVELIKEGKLEEAIELARRAARELSLEEVLRLGELLIERIKTLPEEHLELAWEVVEELAREIEERFGAEEEADYLEARAAAAIYERLQA
# Target: GABARAP, O95166
# Sequence (O95166 whole entry, the tested form may be a part): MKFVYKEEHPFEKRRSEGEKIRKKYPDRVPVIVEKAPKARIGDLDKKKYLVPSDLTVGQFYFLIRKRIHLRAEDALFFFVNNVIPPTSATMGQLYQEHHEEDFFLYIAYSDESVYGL
# Assay: median log2 fold change of GCK-ALFA target abundance (FLAG IP / Myc IP barcode read proportion) (log2 ratio); each designed protein is fused to an ALFA-tag nanobody in HEK293 cells to bring the named protein to FLAG-tagged glucokinase (GCK); Myc marks an untargeted standard; higher = target protein stabilised (more abundant)
# Settings: target protein: 3xFLAG-MCP-GCK-ALFA reporter; HEK293 landing pad (RPLP)
# Outline: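 The readout is target abundance, the per-binder median log2 ratio of FLAG to Myc barcode read proportions. It came from HEK293 landing-pad cells carrying a recombined ALFA-nanobody-fused binder library, induced with 2 μg mL^−1 doxycycline and transfected with a plasmid for a FLAG-tagged target and a Myc-tagged standard. After 48 h, lysates were immunoprecipitated with anti-FLAG and anti-Myc, and circular RNA barcodes were reverse transcribed, amplified and sequenced. Each barcode needed a proportion of at least 10^−7 in both replicates and each binder at least 3 barcodes per replicate, a pseudocount of 10^−6 was added, and the replicates were pooled.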
row,Binder,median log2 fold change
1,B1,0.304
2,B2,-0.0482
3,B3,-0.207
4,B4,0.103
5,B5,0.0418
6,B6,-0.07
7,B7,0.187
8,B8,-0.158
9,B9,-0.0489
10,B10,0.108
11,B11,-0.0825
12,B12,0.235
13,B13,0.173
14,B14,0.308
15,B15,-0.121
16,B16,0.252
17,B17,-0.296
18,B18,0.224
19,B19,0.106
20,B20,-0.0383
21,B21,0.124
22,B22,-0.524
23,B23,0.111
24,B24,-0.32
25,B25,0.335
26,B26,-0.00895
27,B27,-0.157
28,B28,-0.0259
29,B29,-0.123
